Assay results as given in PubChem BioAssay AID1963576 (National Center for Advancing Translational Sciences (NCATS), 2024).
In all, about 46,000 compounds went through this assay and about 60 (0.1%) were called active. Not shown: some 3% with an inconclusive outcome. Calls come from the whole dose curve; as a rule, active = well fitted inhibition curve with a large enough effect; inconclusive = small, poorly fitted or top-dose-only effect; inactive = no such curve, though single readings can be large or run the other way. Some of the results follow.

Assay: Primary qHTS assay for Inhibitors of ovarian cancer metastasis using an organotypic tumor microenvironment (TME) model.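 For activity change, negative = inhibition: plate controls were DMSO wells for no effect and tomatine positive control wells for full effect.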 Note: nearly all actives have a fitted effect of over 65% in size.
Conditions: SKOV3ip1-GFP adhesion/invasion on 3D omental model, fluorescence; series mostly up to 45.8 µM; activity change, negative = inhibition: at the top concentration
How it was run: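 A 3D layer of primary human omental fibroblasts, mesothelial cells, fibronectin and collagen I, grown 48 hr, received SKOV3ip1-GFP cells in serum-free medium plus compounds at 0.36-46 umol/L. After 2 hr RT and 16 hr 37 C, fixed adherent GFP cells were counted; normalized to DMSO and tomatine.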

Activity change, negative = inhibition, inactive:
COc1ccc(CNC(=O)c2ccc3c(c2)N(Cc2ccc(C)cc2)CCS3)cc1 -6.47%
CCc1ccccc1NC(=O)Cn1c(=O)n(-c2ccc(CC(=O)NCC3CCCO3)cc2)c(=O)c2ccccc21 (configuration not stated) -1.54%
Cc1ccc(CNC(=O)C2COc3ccccc3C2)cc1 (configuration not stated) -0.671%
COc1ccc2c(c1)Cc1sc(NC(=O)c3cccc(C)c3)nc1-2 -10.1%
Cc1cc(C)cc(NC(=O)C2CCCN2S(=O)(=O)c2ccc3c(c2)CCCC(=O)N3)c1 (configuration not stated) -12.3%
Cc1ccc(OCC(=O)OC2=C(C(=O)c3ccccc3)N(C)S(=O)(=O)c3ccccc32)cc1 -4.67%
Cc1ccccc1NC(=O)c1sc2nc3n(c(=O)c2c1C)CCC3 -6.87%
COC(=O)CSc1nc2sc3c(c2c(=O)n1-c1ccccc1C)CC(C)(C)OC3 4.51%
Clc1ccc(-c2nc3c4cnn(-c5ccccc5Br)c4ncn3n2)c(Cl)c1 4.25%
Cc1ccc(-n2nnc(-c3nc(-c4cccs4)no3)c2N)c(C)c1 14.1%
O=S(=O)(Nc1cccc(C(F)(F)F)c1)c1ccc(-c2cnc(C3CC3)o2)cc1 -25.4%
COc1ccc(S(=O)(=O)c2c(C(=O)c3ccc(C)c(C)c3)cnc3ccc(F)cc23)cc1 -18.3%
CCCCCSc1nc2sc3c(c2c(=O)n1-c1ccc(OC)cc1)CCN(C(C)=O)C3 -12.7%
COc1ccc(S(=O)(=O)NCc2cccn2Cc2cccc(C)c2)cc1 -1.96%
Cc1ccc(Nc2c(-c3ccsc3)nc3c(C)cccn23)cc1 -16.4%
COc1ccccc1CNC(=O)Cn1ncn2c(cc3sccc32)c1=O 2.76%
COc1cc2c(cc1NC(=O)COc1ccc(Cl)cc1Br)oc1ccccc12 0.396%
Cc1c(C)n(C)c2ccc(C(=O)NCc3cccc(F)c3)cc12 -8.28%
COc1ccc(Cn2ccc3nc(C)c(C(=O)NCc4cccc(OC)c4)cc3c2=O)cc1 3.9%
CCc1ccccc1NC(=O)Cn1c2ncccc2c(=O)n1-c1ccccc1 -8.36%
CCOc1ccc(CNC(=O)CCCc2cn(C)c3ccccc23)cc1OC 17%
COC(=O)c1cc2sc(Cl)cc2n1Cc1cc(C)ccc1C 1.63%
Cc1cc(=O)c2cc(C(=O)Nc3ccccc3C)ccc2[nH]1 15.9%
CCOc1cc2sc(N3CCC(C(=O)Nc4cc(C)cc(C)c4)CC3)nc2cc1Br -9.25%
COc1ccccc1Cn1cc(C(=O)c2ccc(C)cc2)c(=O)c2cc3c(cc21)OCCO3 -14.2%
CCn1cc2c(n1)-c1c(oc(C(=O)Nc3cccc(C(F)(F)F)c3)c1C)CC2 -4.53%
COc1cc(F)c(S(=O)(=O)Nc2c(C)n(C)n(-c3ccccc3)c2=O)cc1OC -3.11%
COC(=O)c1ccc(CSc2nnc3ccc4ccccc4n23)cc1 14.7%
COc1ccc(C(=O)Nc2ccc(C(=O)OCc3cc(=O)n4nc(C5CC5)sc4n3)cc2)cc1 3.8%
COc1ccccc1-c1noc(CCCC(=O)Nc2cc(C)ccc2C)n1 49.3%
CCCN(Cc1cccs1)C(=O)Nc1cc(OC)ccc1OC 2.99%
Cc1ccc(N(C)C(=O)c2cc(S(=O)(=O)N3CCOCC3)cn2C)cc1 13.9%
O=C(CN1CCSc2ccccc21)N1CCN(c2ccc(F)cc2)CC1 -7.13%
CCN(CC)C(=O)Nc1ccc2c(c1)N(Cc1ccccc1)C(=O)c1ccccc1S2 17.5%
CCOC(=O)c1c(C)[nH]c(C)c1S(=O)(=O)NCC(=O)N1CCN(c2ccccc2OC)CC1 15.6%
COc1ccc(OC)c(S(=O)(=O)NCCc2csc(-c3cccc(F)c3)n2)c1 -2%
CC(=O)c1ccc(NC(=O)CCOc2ccccc2)cc1 -8.93%
CCOc1ccccc1NC(=O)C(CC)n1c(C(=O)OC)cc2occc21 (configuration not stated) -3.5%
CCc1cccc(C)c1NC(=O)CN1CCCN(Cc2ccccc2Cl)S1(=O)=O 3.11%
Cc1c(C(=O)N2CCCCCC2)c(S(=O)(=O)N(Cc2ccccc2)C(C)(C)C)c(C)n1C 13%
CCCn1c(=NC(=O)c2cc3ccccc3o2)c(C(=O)OCC)cc2c(=O)n3ccccc3nc21 4.7%
COc1ccc(Nc2oc(/C=C/c3cccc(OC)c3)nc2C#N)cc1 48.4%
COc1ccc(N(C(=O)/C=C\C(=O)Nc2ccc(C)cc2)C(C(=O)NCc2ccco2)c2ccc(C)cc2)cc1 (configuration not stated) -5.35%
CCCc1nn2c(=O)cc(COc3ccc(/C=C(\C#N)C(=O)Nc4ccccc4)cc3)nc2s1 2.77%
COc1ccc(C(CC(=O)NCc2ccccc2Cl)N2Cc3ccccc3C2=O)cc1OC (configuration not stated) -2.27%
Cc1ccc(NC(=O)Cn2c(=O)n(CCCCC(=O)NCc3ccccc3Cl)c(=O)c3ccccc32)cc1 -2.77%
Cc1ccc(C)c(CN2C(=O)c3ccccc3S(=O)c3ccc(C(=O)N4CCN(c5cccc(Cl)c5)CC4)cc32)c1 (configuration not stated) 12%
COc1ccccc1OCC(=O)NCC(c1ccc(Cl)cc1)N1CCOCC1 (configuration not stated) 2.41%
Cc1ccc(NC(=O)CN(C)S(=O)(=O)c2cnc[nH]2)cc1 1.6%
Cc1ccc(NC(=O)C(=O)NCc2ccco2)cc1 -2.43%
Cc1ccc(Cl)cc1NC(=O)c1oc2ccc(S(=O)(=O)N3CCCCC3)cc2c1C 9.43%
Cc1ccc(NC(=O)C2CCCN(S(=O)(=O)c3cccc4cccnc34)C2)cc1 (configuration not stated) -27%
CC(=O)CSc1nnc2cc(C)c3cc(C)cc(C)c3n12 -20.7%
Cc1ccc(S(=O)(=O)c2cn(Cc3cccc(C)c3)c3cc4c(cc3c2=O)OCO4)cc1 -10.2%
Cc1ccc(Cl)cc1NC(=O)c1oc2ccc(S(=O)(=O)N(C)C3CCCCC3)cc2c1C 0.835%
CCOC(=O)c1ccc(NC(=O)CSc2cc(=O)n(CC)c3ccccc23)cc1 -12.7%
O=C(NCCc1ccc(Cl)cc1)C(=O)NCC(c1ccco1)S(=O)(=O)c1ccc(Cl)cc1 (configuration not stated) -6.96%
CCOc1ccc(CN2C(=O)c3ccccc3Sc3ccc(C(=O)O)cc32)cc1 -7.89%
CCC(CC)C(=O)Nc1nnc(SCc2cc(=O)n3cccc(C)c3n2)s1 3.17%
Cc1ccc2c(c1)c(=O)c(C(=O)c1ccc3c(c1)OCO3)cn2Cc1ccc(Cl)cc1 -6.83%
CN(C(=O)CSc1nnc(-c2ccccc2F)o1)C1CCCCC1 1.97%
c1coc(-c2nc3n(n2)C2(CCCCC2)[C@@H]2CCCC[C@@H]2N3)c1 -1.59%
Cc1oc2ncnc(N3CCCCC3)c2c1C(=O)N1CCN(c2cccc(Cl)c2)CC1 13.4%
CN(C)c1ccc(CNC(=O)CCn2cccn2)cc1 4.79%
CCc1ccc(CN2CCc3nc(N4CCN(CC)CC4)ncc3C2)cc1 0.243%
CC(C)c1cnc2c(c1SCC(=O)Nc1cccc(F)c1)c(=O)n(C)c(=O)n2C -7.59%
Cc1ccc(Cl)cc1Nc1nn2c(=O)c3ccc(C(=O)N4CCCC(C)C4)cc3nc2s1 (configuration not stated) -5.81%
CCn1cc2nc(SCc3cccc(Cl)c3)n(Cc3ccc(C)cc3)c(=O)c2n1 101%
O=C(Nc1cccc(F)c1)C1CCN(S(=O)(=O)c2cccc3nsnc23)CC1 1.03%
COc1ccc(OC)c(NS(=O)(=O)c2ccc(-c3cc(C)no3)s2)c1 -28.5%
COc1ccc(CNC(=O)CCCn2nc(C)c3c(C)n(-c4ccccc4)nc3c2=O)cc1 -8%

outcome, inactive:
Cc1ccccc1C(=O)Nc1ccc2nc(SCC(=O)N3CCc4ccccc43)sc2c1
COc1ccc(CSc2nc3ccncc3n2CC(=O)Nc2ccc(C)c(F)c2)cc1
Cc1cc(C)cc(-n2ccn(Cc3ccccc3C)c(=O)c2=O)c1
COc1ccc(CCNC(=O)CCS(=O)(=O)c2cc(Br)cc3c2N(C(C)=O)CC3)cc1OC
COc1ccccc1CNC(=O)CC(c1ccc(C)cc1)N1Cc2ccccc2C1=O (configuration not stated)
Cc1oc(-c2ccc(C(=O)NCCC(C)C)cc2)nc1CN1CCc2ccccc21
CCc1ccc(NS(=O)(=O)c2cc(-c3cnc(C4CC4)o3)ccc2C)cc1
CC(C)c1ccc(OCC(=O)Nc2c(C(=O)c3ccc(F)cc3)oc3ccccc23)cc1
COc1ccccc1NC(=O)CC(c1cc(OC)c(OC)c(OC)c1)N1Cc2ccccc2C1=O (configuration not stated)
Cc1ccc(-n2nc3c(=O)n(CC(=O)NCC(C)c4ccccc4)nc(C)c3c2C)cc1 (configuration not stated)
COc1ccc(CCNC(=O)CCCCn2c(=O)c3ccccc3n(Cc3ccccc3Cl)c2=O)cc1OC
O=S(=O)(c1ccc(-n2cnnn2)cc1)N1CCN(c2cccc(Cl)c2)CC1
CCCCN(CC)CCNC(=O)C1CCCN(S(=O)(=O)c2cccc3nsnc23)C1 (configuration not stated)
O=C(Cn1ncc2ccsc2c1=O)N1CCN(c2ccccc2F)CC1
O=c1cc(-c2ccccc2)n2c(SCc3c(F)cccc3Cl)nnc2[nH]1
Cc1ccc(-n2c(=O)c3cccnc3n2CC(=O)Nc2cc(Cl)ccc2C)cc1
CC(C)CC(=O)NC1(C(F)(F)F)C(=O)Nc2c1c(=O)[nH]c(=O)n2-c1ccccc1 (configuration not stated)
CCc1ccc(-n2c(=O)c3c4c(sc3n(CC(=O)N3CCC(C)CC3)c2=O)CCC4)cc1
CCc1nonc1NC(=O)c1oc2ccc(Br)cc2c1C
Cc1nn(C(C)C(=O)N2CCN(c3ccc(Cl)cc3)CC2)c(=O)c2cc3occc3n12 (configuration not stated)
COc1cc(NC(=O)CCc2c(C)nc3cc(-c4ccccc4)nn3c2C)cc(OC)c1OC
CCOc1ccc(CN(C(=O)c2cc(=O)c3cc(C)cc(C)c3o2)C2CCS(=O)(=O)C2)cc1 (configuration not stated)
CCCN1C(=O)C2(c3ccccc31)c1c(oc3ccc(F)cc3c1=O)C(=O)N2CCCOC(C)C (configuration not stated)
COc1ccc(CCNS(=O)(=O)c2cc(-c3cc(C)no3)ccc2C)cc1OC
Cc1ccc(-n2c(-c3ccco3)nc3c(cnn3-c3ccccc3Cl)c2=O)cc1
Cc1cccc(C(=O)Nc2nnc(S(=O)(=O)N(C)c3ccccc3C)s2)c1
